Reference: publication PMC4336329 (PLoS ONE, 2015)
The campaign covered roughly 310,000 compounds. About 2,200 (0.71%) showed an effect of 50% or more. Effects have a minus sign here. Some of the results follow.

target: human ether-à-go-go-related gene (hERG) potassium channel (human, UniProt Q12809); test: primary screen, population patch clamp on CHO cells stably expressing hERG
Sequence (Q12809 whole entry, looked up): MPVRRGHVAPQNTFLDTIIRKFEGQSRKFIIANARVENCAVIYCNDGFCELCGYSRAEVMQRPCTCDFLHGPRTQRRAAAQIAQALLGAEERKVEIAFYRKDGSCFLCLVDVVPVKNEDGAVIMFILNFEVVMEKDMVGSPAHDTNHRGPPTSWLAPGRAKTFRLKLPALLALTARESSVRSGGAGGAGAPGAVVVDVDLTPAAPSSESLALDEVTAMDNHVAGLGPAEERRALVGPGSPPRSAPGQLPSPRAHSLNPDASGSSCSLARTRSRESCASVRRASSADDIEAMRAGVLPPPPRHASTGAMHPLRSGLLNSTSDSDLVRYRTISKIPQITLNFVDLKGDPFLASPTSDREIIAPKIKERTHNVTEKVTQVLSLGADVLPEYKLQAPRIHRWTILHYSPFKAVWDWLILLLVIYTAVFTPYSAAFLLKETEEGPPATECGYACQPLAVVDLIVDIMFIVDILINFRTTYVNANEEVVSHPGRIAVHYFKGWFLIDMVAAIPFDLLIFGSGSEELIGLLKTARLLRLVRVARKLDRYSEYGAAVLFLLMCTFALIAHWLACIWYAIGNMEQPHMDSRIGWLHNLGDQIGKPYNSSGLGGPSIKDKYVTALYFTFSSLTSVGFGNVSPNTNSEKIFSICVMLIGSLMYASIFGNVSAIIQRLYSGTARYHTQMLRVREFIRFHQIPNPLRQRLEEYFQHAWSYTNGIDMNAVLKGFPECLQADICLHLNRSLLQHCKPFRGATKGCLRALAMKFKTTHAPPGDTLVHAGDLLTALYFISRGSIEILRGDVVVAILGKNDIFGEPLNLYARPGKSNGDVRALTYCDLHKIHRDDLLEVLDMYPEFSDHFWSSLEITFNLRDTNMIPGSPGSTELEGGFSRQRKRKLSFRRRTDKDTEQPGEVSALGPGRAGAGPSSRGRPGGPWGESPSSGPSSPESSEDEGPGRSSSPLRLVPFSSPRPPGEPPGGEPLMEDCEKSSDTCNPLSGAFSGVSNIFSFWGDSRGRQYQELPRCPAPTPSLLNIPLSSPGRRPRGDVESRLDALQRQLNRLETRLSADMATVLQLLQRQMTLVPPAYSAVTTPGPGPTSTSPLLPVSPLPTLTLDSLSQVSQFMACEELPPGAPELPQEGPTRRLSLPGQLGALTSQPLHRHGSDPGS

Structure (SMILES) | hERG current change (%, negative = inhibition) at 1uM
c1ccc(SCc2cc(-c3ccccc3)no2)cc1 | 8.73%
CCCCNC(=S)Nc1ccc(Cl)cc1 | 2.75%
CC(C)c1nc(SCC(=O)NCc2ccccc2)n[nH]1 | 11.5%
Cc1cc([N+](=O)[O-])nn1CCCC(=O)Nc1ccc2c(c1)OCO2 | 16.8%
Cc1[nH][nH]c(=O)c1N=Nc1ccccc1 | 14.4%
C/C(=N\NC(=O)c1nn(C)c(C)c1Br)c1cccc(NC(=O)c2ccc(F)cc2)c1 | 12.6%
CCc1ccc(-c2cc(C)no2)cc1S(=O)(=O)NCCc1ccccc1 | 11.1%
CC(C)(C)n1nnnc1CN(Cc1ccco1)Cc1cc2cc3c(cc2[nH]c1=O)OCO3 | 4.25%
COc1ccc(Cn2cnc3c(NS(C)(=O)=O)c(C)c(C)cc32)cc1 | 13.2%
Cc1cc(NC(=O)C(C)C)n(-c2nc3ccccc3s2)n1 | 11.2%
O=C(O)C1C2C=CC3(CN(C4CCCC4)C(=O)C13)O2 (centres unmarked) | 1.94%
CSCC[C@H](NC(=O)OC(C)(C)C)C(=O)N1CCC(C(=O)N[C@@H](C)C(=O)NC(C)c2ccccc2)CC1 (some centres unmarked) | 18.5%
O=C(NCCCN1CCOCC1)c1sc2cc(F)ccc2c1Cl | -15.6%
CC(=O)Nc1cccc(-c2nc3ccc(NC(C)=O)cc3[nH]2)c1 | 3.05%
CC(C)NC(=O)c1ccc(CNC(=O)OCC(F)(F)F)cc1 | 15.4%
Cc1cccc(CCN(C(=O)Cc2cccs2)C(C(=O)NC2CCCCC2)c2cccnc2)c1 (centres unmarked) | 9.13%
CN(CC(=O)Nc1ccccc1Br)C(=O)C1CCN(C(=O)c2ccc(Cl)cc2)CC1 | -23.5%
Nc1ccccc1N=Nc1ccccc1N | -2.08%
COc1ccccc1CC(=O)O/N=C(\N)c1ccccn1 | 12.4%
CCc1ccc(Nc2n[n+](-c3ccccc3)c(-c3cccc(Cl)c3Cl)s2)cc1.[Cl-] | 9.99%
COc1ccc(NC(=O)Cn2c(=O)c(C)nc3ccccc32)cc1Cl | 9.8%
Cc1ccc2occ(/C=N/NC(=O)c3ccncc3)c(=O)c2c1 | 9.76%

Structure (SMILES) | hERG current change (%, negative = inhibition) at 1uM
CCc1ccc(OC(C)c2nnc(SCC(=O)Nc3ncccc3C)n2C)cc1 (centres unmarked) | 9.38%
C[N+](C)(C)CCOP(=O)([O-])OC[C@H](O)CO | 14.6%
COc1ccc(C(=O)NC2CC(C)(C)Cc3c2cnn3-c2ccccc2C)c(OC)c1OC (centres unmarked) | 5.24%
COc1ccc(CNC(=O)C2(c3ccc(Cl)cc3)CC2)cc1 | 8.11%
CCOC(=O)N1CCN(S(=O)(=O)c2ccc(OCC)c3ccccc23)CC1 | 17.3%
O=C(c1ccc(Cl)cc1[N+](=O)[O-])N(Cc1ccccc1)Cc1ccccc1 | 6.37%
CCn1c(SCC(=O)Nc2cc(C)on2)nnc1-c1cccc(C)c1 | 12.3%
CC1CCN(C(=O)c2ccccc2NC(=O)Cc2ccccc2)CC1 | 13.7%
Nc1cc(S(=O)(=O)c2ccc(O)c(N)c2)ccc1O | 14.3%
O=C(CCSc1nc(-c2ccc3c(c2)OCO3)cc(C(F)(F)F)n1)NCc1ccccc1 | 13.4%
Cc1cccc(-c2c3c(=O)n(C)c(=O)n(C)c3cn2C(C)C)c1 | 18.1%
Cc1ccc(S(=O)(=O)Nc2cccc(C(=O)NCC(c3ccco3)N3CCCC3)c2)cc1F (centres unmarked) | 1.99%
CCOC(=O)C1=C(C)N(c2ccc(C)cc2)C(=O)/C1=C\c1cccs1 | 3.34%
CN1CCN(c2nc3c(c(=O)n(C)c(=O)n3C)n2Cc2cccc(Br)c2)CC1 | -41.4%
COc1cc(OC)c(NC(=O)c2ccc(F)cc2)cc1Cl | 8.38%
C=CCN1C=C2C(=O)C(C)(OC(=O)c3ccco3)C(=O)C(C=C)=C2C=C1C1CC1 (centres unmarked) | 6.19%
O=C(Cc1cccs1)NCc1cccc(F)c1 | 17.2%
O=C(CSc1nc(-c2ccccc2Cl)ns1)NCc1ccco1 | 3.46%
CCC(C)n1c(=N)c(C#N)cc2c(=O)n3cccc(C)c3nc21 (centres unmarked) | -16.6%
C=CC(=O)Nc1sc2c(c1C(N)=O)CCCC2 | 9.53%
CCCC(=O)N(Cc1cc(=O)[nH]c2ccccc12)c1ccc(OC)cc1 | 17.2%
CCCN1CCC(=O)N([C@H](CSc2ccc(OC)cc2)CC(C)C)CC1 | -42.3%
